Assay results reported in PubChem BioAssay AID624296 (National Center for Advancing Translational Sciences (NCATS), 2012).
Several values for one entry are separate records, joined by “and”; a condition that tells them apart may be missing. Equal entries are not always repeated. Out of some 350,000 compounds screened, about 9,900 (2.8%) were called active. The shares of active, inactive and inconclusive entries below differ from those in the screen. Calls come from the whole dose curve; as a rule, active = well fitted activation curve with a large enough effect; inconclusive = small, poorly fitted or top-dose-only effect; inactive = no such curve, though single readings can be large or run the other way. Where the call is inconclusive, the potency comes from a doubtful curve fit.

assay: A quantitative high throughput screen for small molecules that induce DNA re-replication in MCF 10a normal breast cells.; note: nearly all actives have a fitted effect of over 50% in size; for activity, positive = re-replication: % of control where 0% means no effect; details: MCF 10A DNA re-replication, Hoechst nuclear intensity, 48 h; series mostly up to 46.1 µM; activity, positive = re-replication: at the top concentration
Potency is the fitted concentration of half-maximal effect; tags give direction and shape of the fitted curve.

Compound | Potency | activity, positive = re-replication
O=C(NCc1ccccc1)c1cc2ccc(O)cc2oc1=O | active: 16.4 µM | 
CN(C)c1ccc(C(CNC(=O)c2ccccc2Br)c2c[nH]c3ccccc23)cc1 (stereo not given) | inconclusive: 20.6 µM [activator, single point] | 
CC(C)c1ccc(NC(=S)NN2C(C)CCCC2C)cc1 (stereo not given) | inconclusive: 23.1 µM [activator, partial curve, poor fit] | 
O=C(N/N=C/c1ccc(N2CCOCC2)cc1)c1ccc(O)cc1 |  | inactive: 3.28%
CN(C)c1ccc(C=c2c3ccccc3n3c2c2c([n+]3C)CCCC2)cc1 | inconclusive: 0.116 µM [activator, full curve, poor fit] | 
CCOc1ccc(CN(C)C(=O)c2ccc(S(=O)(=O)N(C)c3ccccc3OC)cc2)cc1 |  | inactive: 15.8%
O=C(N/N=C/c1ccc(-c2cccc(C(F)(F)F)c2)o1)c1cccc(F)c1 | inconclusive: 20 µM [activator, single point] | 
CCOC(=O)c1ccc(NC(=O)CN(C)S(=O)(=O)c2ccc(Br)s2)cc1 | inactive and inconclusive: 32.6 µM [activator, single point] | 
CCN(CC)c1ccc(/C=N/NS(=O)(=O)c2ccc(C)c([N+](=O)[O-])c2)cc1 |  | inactive: 9.69%
COc1cc(C(=O)NC2CCN(C)CC2)ccc1Nc1ncc2c(n1)N(C1CCC(O)CC1)CCC(=O)N2C (stereo not given) | inconclusive: 25.9 µM [activator, single point] | 
COc1ccc(CC(=O)NCC2(N3CCCCC3)CCCCC2)cc1 | inconclusive: 0.651 µM [activator, partial curve, poor fit] | 
CCOc1ccc(NC(=O)CCn2c(=O)[nH]c3ccsc3c2=O)cc1 |  | inactive: 3.93%
CC1CCN(S(=O)(=O)c2ccc(NC(=O)C3CC3)cc2)CC1 | inconclusive: 16.4 µM [activator, single point] | 
O=C(NCCc1c[nH]c2ccccc12)C(=O)NCC(c1ccco1)N1CCN(c2ccccc2F)CC1 (stereo not given) | inconclusive: 5.8 µM [activator, partial curve, poor fit] | 
CCc1ccc(-c2nc(CN3CCC(C(=O)NCc4ccco4)CC3)c(C)o2)cc1 | inconclusive: 32.6 µM [activator, partial curve, poor fit] | 
O=C(NNC(=O)c1ccccn1)c1cccc([N+](=O)[O-])c1 |  | inactive: -1.8%
Cc1ccc2nc(SCC(=O)c3ccc4c(c3)OCO4)[nH]c2c1 |  | inactive: -1.63%
N/C(=N\O)c1ccc(N2CCN(c3ncccc3C(F)(F)F)CC2)nc1 | inconclusive: 29.1 µM [activator, single point] | 
COc1cc2c(cc1NC(=O)COC(=O)[C@@H](NS(=O)(=O)c1ccccc1)C(C)C)oc1ccccc12 | inconclusive: 18.4 µM [activator, single point] | 
Cc1ccc(S(=O)(=O)NNC(=O)/C=C/c2cccc(F)c2)cc1 | inconclusive: 0.0651 µM [activator, full curve, poor fit] | 
CC1(c2ccc(OC(F)F)cc2)NC(=O)N(CC(=O)Nc2cccnc2Cl)C1=O (stereo not given) |  | inactive: 1.05%
COc1ccc(CCNc2nc(-c3ccc(NC(C)=O)cc3)cs2)cc1OC | inconclusive: 18.4 µM [activator, single point] | 
NC(=O)CC(NC(=O)c1ccccc1)c1ccc(NCc2ccc(F)cc2)c([N+](=O)[O-])c1 (stereo not given) |  | inactive: 9.13%
O=C(CSc1ccc2c(c1)OCCO2)Nc1ccc(Br)cn1 | inconclusive: 29.1 µM [activator, partial curve, poor fit] | 

Compound | Potency | activity, positive = re-replication
CC(Oc1ccc2c(-c3ccccc3)cc(=O)oc2c1)C(=O)N1CCOCC1 (stereo not given) | inconclusive: 29.1 µM [activator, single point] | 
CC(NC(=O)c1ccc(S(=O)(=O)Nc2ccccc2)cc1)c1ccc(S(N)(=O)=O)cc1 (stereo not given) |  | inactive: 3.04%
CCOC(=O)/C(=C/c1c(C)n(C)c2ccc([N+](=O)[O-])cc12)C(C)=O | active: 14.6 µM | 
Cc1c(C(=O)OCC(=O)N(C)Cc2ccc(Cl)cc2)oc2ccccc12 |  | inactive: 20.6%
CC(C)Oc1ccc(C(=O)N2CCCc3ccccc32)cc1 | inconclusive: 23.1 µM [activator, partial curve, poor fit] | 
O=C(/C=C\c1ccc2c(c1)OCO2)NC1(C(=O)Nc2ccc3c(c2)OCO3)CCCCC1 | inconclusive: 29.1 µM [activator, single point] | 
CCCCOCCCNCC(=O)Nc1ccc(S(N)(=O)=O)cc1 |  | inactive: 1.11%
CCOC(=O)C1CCN(C(=O)c2cccs2)CC1 |  | inactive: -3.89%
Cc1cc(C)nc(NC(=O)c2c(-c3ccccc3Cl)noc2C)c1 | inconclusive: 29.1 µM [activator, single point] | 
COc1ccccc1CC(=O)Nc1cc2oc3ccccc3c2cc1OC |  | inactive: 0.202%
Cc1ccccc1OC1CCN(C(=O)c2cc(COc3ccccc3)on2)CC1 | inconclusive: 32.6 µM [activator, partial curve, poor fit] | 
Cc1cc(C)c(NC(=O)CNC(=O)c2cc(C3CC3)nn2-c2ccccc2)c(C)c1 | inconclusive: 29.1 µM [activator, single point] | 
NC(=O)c1ccsc1NC(=O)c1ccc(S(=O)(=O)N2CCCCC2)cc1 | inconclusive: 25.9 µM [activator, single point] | 
CS(=O)(=O)Nc1cccc(C2=NN(S(C)(=O)=O)C(c3ccc4c(c3)OCO4)C2)c1 (stereo not given) | inconclusive: 20.6 µM [activator, single point] | 
COc1ccc(OC)c(NC(=O)c2sc3ncnc(N4CCN(c5ccccn5)CC4)c3c2C)c1 |  | inactive: 4.16%
Cc1ccc(CSCc2ccc(C(=O)NCCC(C)C)o2)cc1 | inconclusive: 23.1 µM [activator, single point] | 
CC(=O)NC(CC(C)C)C(=O)NC(CO)C(=O)NC(CCC(=O)O)C(=O)NC(C)C(=O)NC(CC(C)C)C(N)=O (stereo not given) |  | inactive: 12.8%
O=C(c1cccc2c1-c1ccccc1C2)N1CCCCC1 | inconclusive: 2.06 µM [activator, partial curve, poor fit] | 
S=C(NCc1ccco1)NCC1CCCO1 (stereo not given) |  | inactive: -1.68%
CCOC(=O)C1(Cc2ccccc2C)CCCN(C(=O)c2ccc3nccnc3c2)C1 (stereo not given) | inconclusive: 20.6 µM [activator, partial curve, poor fit] | 
CCOCCOC(=O)C1=C(C)NC(=O)NC1c1cc2c(cc1Br)OCO2 (stereo not given) | inconclusive: 1.16 µM [activator, single point] | 
O=C(Nc1ccc(Cl)cc1)C1=Cc2cc(Cl)ccc2OC1 | inconclusive: 22.4 µM [activator, single point] | 
Cc1ccc(S(=O)(=O)Nc2ccc(NC(=O)c3cccs3)cc2)cc1 | inconclusive: 6.51 µM [activator, partial curve, poor fit] | 
Cc1ccc(C(=O)NNC(=O)c2ccc(C)cc2)cc1 |  | inactive: 12.7%

Compound | Potency | activity, positive = re-replication
Clc1nc(-c2ccccc2)ncc1Oc1ccccc1 | inconclusive: 29.1 µM [activator, single point] | 
Cc1ccc2[nH]c(=O)c(CN(CCc3ccccc3)C(c3nnnn3Cc3ccco3)C(C)C)cc2c1 (stereo not given) | inconclusive: 29.1 µM [activator, single point] | 
Cc1ccc(S(=O)(=O)N(C)c2ccc(C(=O)NCc3ccccc3F)cc2)cc1 | inconclusive: 4.11 µM [activator, single point] | 
COc1ccc(CN2CCN(CCc3ccccc3)C(CCO)C2)cc1Cn1cncn1 (stereo not given) |  | inactive: 0.464%
CCOC(=O)N/N=C/c1cc(C)n(-c2cccc3ccccc23)c1C | inconclusive: 29.1 µM [activator, single point] | 
CC(=O)N(C1=C(N)C(=O)c2ccccc2C1=O)c1ccccc1 |  | inactive: -5.36%
Cc1ccc(C(=O)NS(=O)(=O)c2ccc(N=NN(C)C)cc2)cc1 |  | inactive: -6.26%
COc1ccc(N=C2C=CC(=O)O2)cc1 | inconclusive: 20.6 µM [activator, single point] | 
COc1ccc(/C=C2\C(=O)NC(=O)c3ccccc32)cc1OC | inconclusive: 23.1 µM [activator, single point] | 
CCOC(=O)/C=C/C(=O)Nc1ccccc1C(=O)NC1CCCCC1 | inconclusive: 18.4 µM [activator, single point] | 
COc1ccccc1-c1nnc(SC(C(=O)c2c[nH]c3ccccc23)c2ccccc2)n1C (stereo not given) | inconclusive: 29.1 µM [activator, single point] | 
O=C(NC1CC1)c1sc2cc(Cl)ccc2c1Cl |  | inactive: 5.85%
Cc1ccccc1OC(C)C(=O)Nc1ccc(S(=O)(=O)N2CCCC2)cc1 (stereo not given) | inconclusive: 18.4 µM [activator, single point] | 
COc1ccc(-c2cc(C(=O)NCCN3CCOCC3)c3ccccc3n2)c(OC)c1 | inconclusive: 0.184 µM [activator, full curve] | 
Cc1nn(Cc2cccc(C(N)=O)c2)c(C)c1Br |  | inactive: 1.01%
COc1cccc(NC(=O)c2ccc(-n3cnnn3)cc2)c1 |  | inactive: 4.08%
CCOC12NC(=O)CC(=O)N1C(c1ccccc1)=CS2 (stereo not given) |  | inactive: 12.9%
C=CCn1c(=NC(=O)c2cc(-c3cccs3)nc3ccccc23)sc2cc(S(N)(=O)=O)ccc21 | inconclusive: 8.2 µM [activator, partial curve, poor fit] | 
COc1ccc(N2CCN(c3cc(C)c4cccc(C)c4n3)CC2)cc1 | inconclusive: 20.6 µM [activator, partial curve, poor fit] | 
Cn1c(SCC(=O)N2CCN(S(=O)(=O)c3ccccc3)CC2)nc2ccccc21 |  | inactive: 19.2%
CCC1CCc2sc(C(=O)O)cc2C1 (stereo not given) |  | inactive: -0.343%
Cc1onc(-c2ccccc2)c1C(=O)Nc1sc2c(c1C#N)CCC2 | inconclusive: 29.1 µM [activator, single point] | 
